“And” between values parts separate entries of the source, which are not always exact repeats. Equal entries are not always repeated. Where two headings read alike, the source gives them in different places.
Legend:
[1] = molecular target: PF-7802-labelled proteins in ARPE-19 cells (Homo sapiens, UniProt P48735); settings: protein IDH2 Isocitrate dehydrogenase [NADP], mitochondrial (P48735); one column per replicate
[2] = molecular target: PF-7802-labelled proteins in ARPE-19 cells (Homo sapiens, UniProt Q86Y46); settings: protein KRT73 Keratin, type II cytoskeletal 73 (Q86Y46); one column per replicate
UniProt Q86Y46, sequence (Q86Y46 whole entry): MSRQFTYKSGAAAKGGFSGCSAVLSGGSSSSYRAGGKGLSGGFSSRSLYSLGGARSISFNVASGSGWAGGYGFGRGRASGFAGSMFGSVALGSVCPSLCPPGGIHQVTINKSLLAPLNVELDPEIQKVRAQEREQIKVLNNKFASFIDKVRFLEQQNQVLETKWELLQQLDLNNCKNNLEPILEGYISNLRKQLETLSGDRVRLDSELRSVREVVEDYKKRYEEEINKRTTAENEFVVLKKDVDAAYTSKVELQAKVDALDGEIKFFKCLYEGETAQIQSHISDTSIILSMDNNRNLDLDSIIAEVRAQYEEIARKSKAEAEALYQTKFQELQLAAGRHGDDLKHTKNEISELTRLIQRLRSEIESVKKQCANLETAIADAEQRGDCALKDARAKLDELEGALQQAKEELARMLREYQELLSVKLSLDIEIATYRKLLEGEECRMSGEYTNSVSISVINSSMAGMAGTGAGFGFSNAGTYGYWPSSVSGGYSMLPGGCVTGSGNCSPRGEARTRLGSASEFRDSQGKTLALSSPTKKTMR

[3] = molecular target: PF-7802-labelled proteins in ARPE-19 cells (Homo sapiens, UniProt P36578); settings: for Median SILAC Ratio (Heavy/Light): protein RPL4 60S ribosomal protein L4, P36578
[4] = molecular target: PF-7802-labelled proteins in ARPE-19 cells (Homo sapiens, UniProt P36776); settings: protein LONP1 Lon protease homolog, mitochondrial (P36776); replicates in separate columns
[5] = molecular target: T1, PF-7802-labelled proteins in ARPE-19 cells (Homo sapiens, UniProt P20700); settings: for Median SILAC Ratio (Heavy/Light): protein LMNB1 Lamin-B1 (P20700), replicates in separate columns
T1 sequence (P20700 1-586): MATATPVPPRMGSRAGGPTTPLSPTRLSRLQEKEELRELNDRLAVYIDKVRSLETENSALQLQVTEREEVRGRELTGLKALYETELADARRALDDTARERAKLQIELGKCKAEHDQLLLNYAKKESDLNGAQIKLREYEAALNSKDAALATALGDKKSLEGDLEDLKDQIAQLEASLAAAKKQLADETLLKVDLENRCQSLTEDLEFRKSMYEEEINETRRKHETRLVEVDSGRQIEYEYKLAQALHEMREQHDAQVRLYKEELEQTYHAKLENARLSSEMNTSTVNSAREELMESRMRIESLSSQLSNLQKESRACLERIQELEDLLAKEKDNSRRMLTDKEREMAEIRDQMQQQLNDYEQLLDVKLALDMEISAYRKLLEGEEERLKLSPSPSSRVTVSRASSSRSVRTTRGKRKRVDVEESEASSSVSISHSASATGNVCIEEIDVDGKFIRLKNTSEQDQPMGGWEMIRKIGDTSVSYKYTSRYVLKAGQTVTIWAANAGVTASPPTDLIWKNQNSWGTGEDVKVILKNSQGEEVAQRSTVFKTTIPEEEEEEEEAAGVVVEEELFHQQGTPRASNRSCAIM

[6] = molecular target: PF-7802-labelled proteins in ARPE-19 cells (Homo sapiens, UniProt P08670); settings: for Median SILAC Ratio (Heavy/Light): protein VIM Vimentin (P08670)
UniProt P08670, sequence (P08670 whole entry): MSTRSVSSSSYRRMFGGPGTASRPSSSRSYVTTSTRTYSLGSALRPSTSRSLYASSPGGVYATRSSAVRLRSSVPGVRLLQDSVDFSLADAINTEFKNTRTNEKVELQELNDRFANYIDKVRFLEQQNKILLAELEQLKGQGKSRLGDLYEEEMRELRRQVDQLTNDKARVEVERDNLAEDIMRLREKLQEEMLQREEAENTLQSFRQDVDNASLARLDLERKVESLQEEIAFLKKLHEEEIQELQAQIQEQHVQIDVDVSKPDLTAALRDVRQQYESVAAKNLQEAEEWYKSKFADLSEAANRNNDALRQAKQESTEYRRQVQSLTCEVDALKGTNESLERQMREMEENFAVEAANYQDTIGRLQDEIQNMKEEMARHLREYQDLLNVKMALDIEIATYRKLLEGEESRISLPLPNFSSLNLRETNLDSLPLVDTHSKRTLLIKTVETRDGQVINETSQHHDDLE

[7] = molecular target: PF-7802-labelled proteins in ARPE-19 cells (Homo sapiens, UniProt P08962); settings: protein CD63 CD63 antigen (P08962)
UniProt P08962, sequence (P08962 whole entry): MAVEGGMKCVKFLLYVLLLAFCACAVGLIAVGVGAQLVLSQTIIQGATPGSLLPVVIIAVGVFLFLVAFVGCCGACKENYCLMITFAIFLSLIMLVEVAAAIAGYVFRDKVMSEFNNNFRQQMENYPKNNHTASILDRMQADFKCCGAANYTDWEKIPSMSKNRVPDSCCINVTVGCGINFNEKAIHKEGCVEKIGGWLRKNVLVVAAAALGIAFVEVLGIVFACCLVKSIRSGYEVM

[8] = molecular target: T2, PF-7802-labelled proteins in ARPE-19 cells (Homo sapiens, UniProt P52597); settings: for Median SILAC Ratio (Heavy/Light): protein HNRNPF Heterogeneous nuclear ribonucleoprotein F (P52597), one column per replicate
T2 sequence (P52597 1-415): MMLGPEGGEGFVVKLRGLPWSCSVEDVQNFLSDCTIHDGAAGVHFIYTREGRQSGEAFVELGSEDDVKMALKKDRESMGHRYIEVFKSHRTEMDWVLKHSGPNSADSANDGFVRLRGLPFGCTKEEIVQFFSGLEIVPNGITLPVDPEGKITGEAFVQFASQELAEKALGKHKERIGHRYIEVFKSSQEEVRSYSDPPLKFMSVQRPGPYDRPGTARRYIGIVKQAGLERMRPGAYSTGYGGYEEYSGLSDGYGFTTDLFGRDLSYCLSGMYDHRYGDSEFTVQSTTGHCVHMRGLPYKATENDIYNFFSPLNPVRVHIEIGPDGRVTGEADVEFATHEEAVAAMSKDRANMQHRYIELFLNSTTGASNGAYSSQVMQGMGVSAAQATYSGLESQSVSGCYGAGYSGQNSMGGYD

[9] = molecular target: PF-7802-labelled proteins in ARPE-19 cells (Homo sapiens, UniProt P40227); settings: protein CCT6A T-complex protein 1 subunit zeta (P40227)
UniProt P40227, sequence (P40227 whole entry): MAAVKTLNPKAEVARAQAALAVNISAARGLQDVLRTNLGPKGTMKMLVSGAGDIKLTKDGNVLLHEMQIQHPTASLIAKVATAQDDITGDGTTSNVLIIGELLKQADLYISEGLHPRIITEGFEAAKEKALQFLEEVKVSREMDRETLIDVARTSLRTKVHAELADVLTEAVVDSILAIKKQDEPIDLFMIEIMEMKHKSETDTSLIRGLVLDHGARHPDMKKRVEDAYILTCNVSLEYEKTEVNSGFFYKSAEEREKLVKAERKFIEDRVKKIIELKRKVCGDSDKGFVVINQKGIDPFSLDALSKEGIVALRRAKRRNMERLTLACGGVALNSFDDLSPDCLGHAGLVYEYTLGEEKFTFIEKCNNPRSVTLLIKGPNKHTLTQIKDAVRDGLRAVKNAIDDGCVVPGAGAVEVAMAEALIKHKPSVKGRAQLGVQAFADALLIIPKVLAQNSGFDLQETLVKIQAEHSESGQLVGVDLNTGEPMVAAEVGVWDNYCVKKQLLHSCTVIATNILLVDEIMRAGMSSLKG

[10] = molecular target: PF-7802-labelled proteins in ARPE-19 cells (Homo sapiens, UniProt P13010); settings: protein XRCC5 X-ray repair cross-complementing protein 5 (P13010); replicate R1
UniProt P13010, sequence (P13010 whole entry): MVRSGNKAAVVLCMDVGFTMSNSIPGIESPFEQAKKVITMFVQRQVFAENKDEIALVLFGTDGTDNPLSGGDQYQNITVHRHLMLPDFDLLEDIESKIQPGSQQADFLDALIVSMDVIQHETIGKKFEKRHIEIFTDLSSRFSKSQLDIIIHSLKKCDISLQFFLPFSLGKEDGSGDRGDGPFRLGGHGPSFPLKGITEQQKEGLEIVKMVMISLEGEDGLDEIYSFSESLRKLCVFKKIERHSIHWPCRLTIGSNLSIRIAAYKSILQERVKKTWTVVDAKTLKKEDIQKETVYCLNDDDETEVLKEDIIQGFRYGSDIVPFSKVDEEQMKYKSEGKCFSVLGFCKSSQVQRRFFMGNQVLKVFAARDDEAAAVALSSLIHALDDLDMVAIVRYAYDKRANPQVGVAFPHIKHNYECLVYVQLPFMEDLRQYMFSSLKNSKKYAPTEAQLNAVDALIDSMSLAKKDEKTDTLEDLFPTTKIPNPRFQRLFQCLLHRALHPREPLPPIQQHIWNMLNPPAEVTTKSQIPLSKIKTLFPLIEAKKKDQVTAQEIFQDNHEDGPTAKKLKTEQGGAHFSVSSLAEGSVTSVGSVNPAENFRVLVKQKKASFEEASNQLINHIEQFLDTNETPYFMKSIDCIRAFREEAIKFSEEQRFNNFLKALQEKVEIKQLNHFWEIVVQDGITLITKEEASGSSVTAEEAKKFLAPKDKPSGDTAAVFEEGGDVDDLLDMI

[11] = molecular target: T3, PF-7802-labelled proteins in ARPE-19 cells (Homo sapiens, UniProt P52272); settings: for Median SILAC Ratio (Heavy/Light): protein HNRNPM Heterogeneous nuclear ribonucleoprotein M (P52272), one column per replicate
T3 sequence (P52272 1-730): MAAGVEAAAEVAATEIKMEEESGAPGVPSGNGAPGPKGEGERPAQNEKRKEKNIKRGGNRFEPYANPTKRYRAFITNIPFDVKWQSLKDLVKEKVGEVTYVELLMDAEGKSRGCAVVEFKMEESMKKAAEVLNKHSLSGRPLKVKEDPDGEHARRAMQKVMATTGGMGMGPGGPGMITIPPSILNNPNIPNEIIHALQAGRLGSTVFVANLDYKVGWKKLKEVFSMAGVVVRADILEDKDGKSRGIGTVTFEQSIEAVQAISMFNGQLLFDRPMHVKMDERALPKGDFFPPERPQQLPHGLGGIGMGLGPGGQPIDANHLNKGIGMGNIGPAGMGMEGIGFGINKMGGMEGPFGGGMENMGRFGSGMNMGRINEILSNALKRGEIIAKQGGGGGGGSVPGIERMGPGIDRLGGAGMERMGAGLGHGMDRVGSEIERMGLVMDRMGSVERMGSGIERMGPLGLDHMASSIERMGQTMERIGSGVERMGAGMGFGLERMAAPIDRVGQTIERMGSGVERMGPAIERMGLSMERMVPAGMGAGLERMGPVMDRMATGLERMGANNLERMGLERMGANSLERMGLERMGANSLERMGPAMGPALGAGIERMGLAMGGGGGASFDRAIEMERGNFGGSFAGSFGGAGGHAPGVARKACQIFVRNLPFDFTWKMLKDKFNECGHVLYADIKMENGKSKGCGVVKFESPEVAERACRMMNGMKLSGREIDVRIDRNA

[12] = molecular target: PF-7802-labelled proteins in ARPE-19 cells (Homo sapiens, UniProt Q2TB90); settings: protein HKDC1 Putative hexokinase HKDC1 (Q2TB90); one column per replicate
UniProt Q2TB90, sequence (Q2TB90 whole entry): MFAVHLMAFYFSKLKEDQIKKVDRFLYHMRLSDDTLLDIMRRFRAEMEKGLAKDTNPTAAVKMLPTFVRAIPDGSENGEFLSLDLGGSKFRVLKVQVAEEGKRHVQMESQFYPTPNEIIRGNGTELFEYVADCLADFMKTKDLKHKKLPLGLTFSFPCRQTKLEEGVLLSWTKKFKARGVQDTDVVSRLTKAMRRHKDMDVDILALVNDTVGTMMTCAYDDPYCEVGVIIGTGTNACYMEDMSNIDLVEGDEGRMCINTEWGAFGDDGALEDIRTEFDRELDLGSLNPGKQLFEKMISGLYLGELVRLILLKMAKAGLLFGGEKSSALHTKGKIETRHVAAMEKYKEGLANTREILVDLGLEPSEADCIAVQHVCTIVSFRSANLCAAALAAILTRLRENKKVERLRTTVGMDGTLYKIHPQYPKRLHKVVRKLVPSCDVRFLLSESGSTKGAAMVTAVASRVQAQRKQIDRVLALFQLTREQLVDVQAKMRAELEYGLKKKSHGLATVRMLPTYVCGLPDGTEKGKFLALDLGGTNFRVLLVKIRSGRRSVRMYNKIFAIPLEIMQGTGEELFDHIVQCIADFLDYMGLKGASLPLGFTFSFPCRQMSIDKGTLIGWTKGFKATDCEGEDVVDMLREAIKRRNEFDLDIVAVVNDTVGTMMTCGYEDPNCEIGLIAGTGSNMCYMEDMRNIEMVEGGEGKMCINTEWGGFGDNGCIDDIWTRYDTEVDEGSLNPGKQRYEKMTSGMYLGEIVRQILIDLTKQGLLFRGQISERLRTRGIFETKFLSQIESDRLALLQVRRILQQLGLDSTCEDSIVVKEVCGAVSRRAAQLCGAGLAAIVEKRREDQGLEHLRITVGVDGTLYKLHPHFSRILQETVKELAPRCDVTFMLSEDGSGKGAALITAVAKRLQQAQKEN

Compound | Median SILAC Ratio (Heavy/Light) [1] | Median SILAC Ratio (Heavy/Light) [2] | SILAC ratio (DMSO/CP-108671) ([3]; P36578 RPL4 60S ribosomal protein L4) | Median SILAC Ratio (Heavy/Light) [3] | Median SILAC Ratio (Heavy/Light) [4] | SILAC ratio (DMSO/CP-108671) ([5]; P20700 LMNB1 Lamin-B1) | Median SILAC Ratio (Heavy/Light) [5] | SILAC ratio (DMSO/CP-108671) ([6]; P08670 VIM Vimentin) | Median SILAC Ratio (Heavy/Light) ([6]; replicate R1) | Median SILAC Ratio (Heavy/Light) ([6]; replicate R2) | Median SILAC Ratio (Heavy/Light) [7] | SILAC ratio (DMSO/CP-108671) ([8]; P52597 HNRNPF Heterogeneous nuclear ribonucleoprotein F) | Median SILAC Ratio (Heavy/Light) [8] | Median SILAC Ratio (Heavy/Light) [9] | Median SILAC Ratio (Heavy/Light) [10] | SILAC ratio (DMSO/CP-108671) ([11]; P52272 HNRNPM Heterogeneous nuclear ribonucleoprotein M) | Median SILAC Ratio (Heavy/Light) [11] | Median SILAC Ratio (Heavy/Light) [12] | Median SILAC Ratio (Heavy/Light) ([6]; replicate R3) | Median SILAC Ratio (Heavy/Light) ([6]; replicate R4)
CNC1CCN(C(=O)C[C@@H](Cc2ccccc2)C(=O)N[C@@H](CSC)C(=O)N[C@@H](CC2CCCCC2)[C@@H](O)C(=O)OC(C)C)CC1 [CP-108671, reference compound] | 0.8931 | 9.803 | 0.66 | 1.5195 | 1.098 | 0.91 | 1.104 | 1.00 | 0.9991 | 1.082 | 0.9086 | 0.91 | 1.094 | 1.435 | 1.1096 | 1.33 | 0.7504 | 1.1454 | – | –
Cc1cc([C@H]2C[C@H]3[C@@H](C)SC(N)=N[C@@]3(c3ccc(F)cc3F)CO2)on1 [PF-9283] | 1.372 | 4.51 | – | 1.523 and 1.925 | 1.403 | – | 1.325 and 3.226 | – | 1.234 | 1.08 | 2.499 and 2.799 | – | 1.29 | 1.475 | 1.126 | – | 0.9046 and 1.002 | 1.094 | 1.654 | 1.795

Source: paper PMC5062570 (Nature Communications, 2016)
